Assay results taken from the supplement of paper PMC11417369.
± gives the standard deviation of the averaged measurements. The list shows a part of the results.

What follows are sequences tested on PfAP2-LT AP2 domain (GST-tagged) (assay: gcPBM binding intensity (ln(normalized median fluorescence intensity)); higher = stronger DNA binding).
Procedure, shortened: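 GST-tagged P. falciparum DNA-binding domains, expressed in E. coli (about 25 μg on average), were applied for 1 h to an Agilent 4 × 180k array of primer-extended double-stranded 36-bp intergenic genomic probes plus negative controls. The binding buffer was 1× PBS with 1% milk, 0.2 mg/ml BSA, 0.5% salmon testes DNA and 0.03% Triton X-100. Bound protein was detected with Alexa488 anti-GST antibody and scanned at 488 nm. Binding intensity is the highest Masliner-normalised natural-log median intensity across replicate spots of either probe orientation.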

Row | Sequence | gcPBM binding intensity (ln)
1 | ATAATTAAGTTATGTGTGCACTGTTAAAAATAAATG | 9.1 ± 0.44
2 | TATATATATATAAACGCATGTAATTTATACACACAT [TGCATGCA_site946] | 9.27 ± 0.29
3 | ATACACATAACATATATATATATATATATATATATC [CACACA_negctrl_site278] | 9.57 ± 0.45
4 | AATATAATATCTATAATATAAAAAAAACAAAAAAAA [CACACA_negctrl_site875] | 8.52 ± 0.65
5 | TTTTATGATATTTACACACAAACGTGAGATAGCTCA [CACACA_site2311] | 8.85 ± 0.31
6 | TTTTTTATTTTTTACATATTTAGCTCATATTTATAT [GTGCAC_negctrl_site491] | 8.85 ± 0.56
7 | AAAATATGTTAATATTGTACTTAAATAAAAAAAATA [XGTACX_site7152] | 8.47 ± 0.42
8 | ATTCTTAAAATAAAATGTACGAAAAAAAAAAAAAAA [XGTACX_site1657] | 8.42 ± 0.41
9 | ATAAATCGATAAAATATATGCTACATGAATAAATAA [XGTACX_negctrl_site604] | 8.82 ± 0.4
10 | TTTAAAAAATTATATTCACACACATACACATATATA [CACACA_site8076] | 9.23 ± 0.4
11 | TAAAAGGATACATATACACACATATATATATATATA [CACACA_site2791] | 9.72 ± 0.13
12 | ATATTTTTATATAATGAACACACATATTATATCATT [CACACA_site8446] | 8.88 ± 0.45
13 | TTCTTCAACAAAAAAATAAAAATAAAATAATAAAAA [GTGCAC_negctrl_site619] | 8.36 ± 0.49
14 | TATTTTCCATGAGGTAGTACACATTAAAAAATCGTT [XGTACX_site6887] | 8.52 ± 0.34
15 | TAAGCGTTTTTTAAAACACACATAAGAACTAAATGA [CACACA_site1670] | 8.66 ± 0.47
16 | TTTCTTAAACCGTACAGTACACACCTTTATAATGTT [XGTACX_site434] | 8.98 ± 0.49
17 | TTACACCTTAGGATCTGTACAAATATATGACAAATC [XGTACX_site4333] | 8.67 ± 0.31
18 | TAATATTAAAAAGAGACACACAAAAATATTAAAAAA [CACACA_site3120] | 8.81 ± 0.59
19 | AAGGTTTTGGGTTTTAATTAATTTAATATGATTATA [XGTACX_negctrl_site147] | 8.58 ± 0.23
20 | ATATTAAATATATACAGTACACATTACAATACAATA [XGTACX_site3221] | 8.98 ± 0.45
21 | CTTTGTAGTTGGTCCACACACATATCTGGAAGAATA [CACACA_site4834] | 8.98 ± 0.46
22 | TAGATGTATTTTTAAAGTACTTTTTAATATATAATC [XGTACX_site1431] | 8.38 ± 0.36

Row | Sequence | gcPBM binding intensity (ln)
23 | AGAATTATATACACAAGTACATAATGACATATATAT [XGTACX_site5617] | 8.99 ± 0.44
24 | TAAAAAATTATATTCACACACATACACATATATATA [CACACA_site545] | 9.29 ± 0.29
25 | TTACAATATAATAAATGTACATATAACAAATATATA [XGTACX_site2199] | 8.77 ± 0.44
26 | CGACTTTTAAAATATACACACATATAAATAAATATA [CACACA_site6523] | 8.79 ± 0.42
27 | TTTTTTTTTTTTTGTAGTACATACTATTTTATTAAT [XGTACX_site950] | 8.64 ± 0.52
28 | TATATATGCATTAAAGTGTTTTTTTTTTTTTTTTTT [CACACA_negctrl_site1353] | 8.79 ± 0.3
29 | ATGTGTATATGTTAATGTACAAATTTTGAAAATGCC [XGTACX_site2685] | 9.01 ± 0.41
30 | TTAAAAAATATATACGTTGATATAATACAACTTGAC [CACACA_negctrl_site1551] | 8.6 ± 0.45
31 | TGTATAACCATAAATTGTACAGAAAAAAGTATAAAA [XGTACX_site1493] | 8.79 ± 0.47
32 | ATTTTTTTTTTTTATGGTACACACACGCGTATGGTT [XGTACX_site3888] | 9.57 ± 0.45
33 | CATCTGGTATCTAATAGTACATATATATAATATCTT [XGTACX_site2774] | 8.86 ± 0.4
34 | AACAAAAGAAAAAAATATATATATTCGTCCTATTTT [CACACA_negctrl_site444] | 8.63 ± 0.47
35 | TTTCAACTTTTGTCATGTACACATAATTTTATTGCA [XGTACX_site6701] | 8.96 ± 0.49
36 | ATTTATTTATCAAATATTATCTTAAAAAAAAAAGAA [CACACA_negctrl_site1345] | 8 ± 0.47
37 | ATACCAATAATATACATACACACATAAAGGTTTATA [CACACA_site314] | 9.17 ± 0.45
38 | AAGAAAAACTAAAGAGTTCTGTTCATATCTCTTTGG [TGCATGCA_negctrl_site549] | 8.67 ± 0.37
39 | TAATTCTTTATAATAACACACATTCATATACAATAA [CACACA_site2499] | 8.62 ± 0.41
40 | GGTATTACCTGTTTGTTATGTAGATGTTGCTAGGAT [GTGCAC_negctrl_site736] | 8.89 ± 0.45
41 | ACTTAAATAATACATACACACATGTACATACAGAAA [CACACA_site1595] | 9.16 ± 0.38
42 | TATTTATATAGACACACACACATATATTTATATTTT [CACACA_site7240] | 9.39 ± 0.18
43 | TTTACATTTAATAAAAGTACTTATTTCATATACATA [XGTACX_site659] | 8.47 ± 0.43
44 | TATATCAAATTCTAAACATGCACAAAAAACTTATAA [TGCATGCA_site510] | 8.55 ± 0.36

Row | Sequence | gcPBM binding intensity (ln)
45 | AAGGAAAAACCATTCGCACACACACCGAATATATAA [CACACA_site8403] | 9.55 ± 0.38
46 | TTATTGGTTATATAAAGTACATTTGAAATATAATTG [XGTACX_site6553] | 8.36 ± 0.36
47 | ATAATAATTTTATGCACACAGAAAAATACAAGGTTA [CACACA_site3510] | 9.01 ± 0.38
48 | TTGCCTGACTTGTTCACACATATTTATGATATACAT [CACACA_site5783] | 9.13 ± 0.35
49 | TTTTCTTGGTATATGATTTATCCTAAATAAGTAAAT [CACACA_negctrl_site294] | 8.34 ± 0.39
50 | AAAAAAAATATATATATTAAAGTTTTAATTTTTATA [CACACA_negctrl_site497] | 8.18 ± 0.66
51 | TTAGAATTTAGAGAAGTGCATATTAAGTTACGAATT [GTGCAC_site9861] | 8.54 ± 0.51
52 | ATTATATATATATATAGTACTTTTTTTTTTTTTTTT [XGTACX_site8801] | 8.61 ± 0.51
53 | AATATACACCCGTGTACACAAATATTTACAAAACGT [CACACA_site4786] | 9.2 ± 0.44
54 | AAAAGGAATGAAAATTCACACAACTATAAATACATA [CACACA_site5337] | 8.88 ± 0.53
55 | GTTACACCAACAAACACACACACACCCACCCACAAA [CACACA_site2427] | 10.3 ± 0.16
56 | TGTATTATAATATTATGTACTTATAAATTTTATATT [XGTACX_site6432] | 8.69 ± 0.38
57 | AATTTAAAGTTTTTTTTTTTTTTTTTTTTTTTTTTG [CACACA_negctrl_site1082] | 8.28 ± 0.53
58 | TCTCACATTCTTATGGGTACACATGAGAAATTATAA [XGTACX_site6799] | 8.45 ± 0.42
59 | TGGGTGGTAAAAATGTGTACATAAAAAAATAATGTT [XGTACX_site2235] | 8.78 ± 0.59
60 | ATATTATTATAAAGTGGTACAATAAATGGTATTATA [XGTACX_site391] | 8.72 ± 0.47
61 | TACAAAAGTTAAACATGTACTTAATTATATGTTTTT [XGTACX_site2852] | 8.57 ± 0.44
62 | ATAAAAATGGATGAATATAAAAAAAAAAAAATATAT [CACACA_negctrl_site182] | 8.6 ± 0.54
63 | GAATATATAAGAACAAATATGGCTTAGAAAAAAAAA [TGCATGCA_negctrl_site451] | 8.77 ± 0.45
64 | CCCATGCATTTTTGCACACACATATATTTATAAATA [CACACA_site6785] | 9.44 ± 0.23
65 | TATATATATGGGTTTACACACAATAATGAATTAAAA [CACACA_site915] | 8.9 ± 0.5
66 | TCAAGTTTATATTAACTATTTATGAAAAAAAAAAGA [CACACA_negctrl_site902] | 8.23 ± 0.38

Row | Sequence | gcPBM binding intensity (ln)
67 | CTAAAAATTTTAATTGCACACCACGTTGGACTATTT [CACACA_site1489] | 8.91 ± 0.38
68 | TTACACTAAATATGTTCACACATTTTTTCCATCATA [CACACA_site4647] | 8.79 ± 0.45
69 | ATATATTACAAATGGAGTACTAAAAATATTCTATAT [XGTACX_site6669] | 8.76 ± 0.39
70 | TATAAGGCAATAATAGTGCACTAAGATATATAATGA | 9.04 ± 0.46
71 | TGCATTTTCCTATTTGCATGCAATTAAAATATAGAA [TGCATGCA_site862] | 8.6 ± 0.31
72 | GATTATTTAAAATATACATGCGCGCACATATGCATA [TGCATGCA_site630] | 9.04 ± 0.44
73 | ATGTTTTAATGAGGTTTGCACTATATTTTAATGAAC | 8.86 ± 0.4
74 | AACATATATACAGTAACACACACAAAAAAATATGAA [CACACA_site9323] | 9.41 ± 0.3
75 | ATCACTAACATGTGTTGTACATAAAATTTGTTTGTT [XGTACX_site2207] | 8.87 ± 0.39
76 | TTATTATTTAACATGTGGACACAAAAATTTAAGGGT [XGTACX_site4638] | 8.72 ± 0.45
77 | TTAACTTTTATATAGTGTACAAATAAATGCATACAG [XGTACX_site5958] | 8.64 ± 0.3
78 | TCTACTACTTAATGGAGTACTAGCTTCATAATATTA [XGTACX_site7030] | 8.53 ± 0.47
79 | TGCAAATTTAACAAAAAAAAAAAAAAAAAAAAAAAA [GTGCAC_negctrl_site64] | 8.05 ± 0.38
80 | TATTATGTATAAAGAAGTACTTTTTTTTTTTTTTTC [XGTACX_site201] | 8.29 ± 0.54
81 | TGAACACAGACAAATACACACAAAAAAAATAAATAA [CACACA_site4298] | 9.28 ± 0.57
82 | ATATAATATACTTATTGTACTTATTTAAAATACTAA [XGTACX_site4266] | 8.44 ± 0.5
83 | AAAAAATGGCTAGTTTGTACACAAAAGTTATTGCAT [XGTACX_site5381] | 8.96 ± 0.51
84 | AAAAAAAAATAAAAATGTACATATATAATATTATAT [XGTACX_site71] | 8.76 ± 0.47
85 | AAGATAAAATTATGCACACATACGAATAATTTTAAA [CACACA_site1705] | 8.95 ± 0.43
86 | TTTCTCAATTCTTAGAGTACATAAATAAAAAAAAAA [XGTACX_site7639] | 8.07 ± 0.33
87 | TTTTACAATAACAATACACACTATAATATATATATA [CACACA_site4893] | 8.77 ± 0.28
88 | TAGGAGCCGAAACACACACACAAAAAAAAAAAAAAA [CACACA_site1731] | 9.47 ± 0.61
